# Measured values as given in PubChem BioAssay (Tox21).
# Inconclusive means that the source gave no clear call. Such entries were picked first, then a sample of the others. For part of these data: No potency is given beside an inconclusive call; the fits are too rough. Active and inactive are the calls of the source. Unless noted, calls come from the whole dose curve; as a rule, active = well fitted curve in the direction sought with a large enough effect in the repeat runs; inconclusive = weak or mixed curves; inactive = no such curve, though single readings can be large; an effect the other way counts as inactive or inconclusive.
# Assays:
# [1] = molecular target: Peroxisome proliferator-activated receptor delta (Homo sapiens) (UniProt Q03181); experiment: qHTS assay to identify small molecule agonists of the peroxisome proliferator-activated receptor delta (PPARd) signaling pathway (AID 743212; calls by dose curve; note: % is set by controls: 0 for no effect and ±100 for the full control effect); conditions: HEK293H PPARd-UAS-bla, beta-lactamase FRET ratio, 17 h; activation: at 62.6 µM (top of the series) unless noted
# Chain of UniProt Q03181 (Q03181 whole entry, looked up): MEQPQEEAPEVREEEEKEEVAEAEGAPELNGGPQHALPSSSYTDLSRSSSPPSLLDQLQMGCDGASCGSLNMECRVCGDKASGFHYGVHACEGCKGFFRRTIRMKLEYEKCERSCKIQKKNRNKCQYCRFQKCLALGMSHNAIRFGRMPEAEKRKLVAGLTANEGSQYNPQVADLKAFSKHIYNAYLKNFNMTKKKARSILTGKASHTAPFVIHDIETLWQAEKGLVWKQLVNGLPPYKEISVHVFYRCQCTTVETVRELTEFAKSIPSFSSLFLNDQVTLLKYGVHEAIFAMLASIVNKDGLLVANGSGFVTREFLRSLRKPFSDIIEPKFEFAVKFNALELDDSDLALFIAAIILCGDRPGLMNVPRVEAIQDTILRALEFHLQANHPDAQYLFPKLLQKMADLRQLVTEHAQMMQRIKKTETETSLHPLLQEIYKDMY
# Summary of the method: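 Tox21 library screened in GeneBLAzer PPARd UAS-bla HEK293H cells. After compound treatment at 37 C, a FRET-based beta-lactamase substrate was applied for 2 h and fluorescence recorded.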
# [2] = molecular target: Peroxisome proliferator-activated receptor delta (Homo sapiens) (UniProt Q03181); experiment: qHTS assay to identify small molecule antagonists of the peroxisome proliferator-activated receptor delta (PPARd) signaling pathway (AID 743215; active = well fitted inhibition curve with a large enough effect in the signal ratio in the repeat runs, not every such curve was filed as active; inconclusive = weak or mixed curves, or effect the other way; inactive = no such curve, though single readings can be large or run the other way; the % refers to the signal ratio; note: potency is the fitted concentration of half-maximal effect; for ratio activity, negative = inhibition: % is set by controls: 0 for no effect and ±100 for the full control effect); conditions: HEK293H PPARd-UAS-bla, beta-lactamase FRET ratio, antagonist, 17 h; ratio activity, negative = inhibition: at 62 µM (top of the series) unless noted
# Summary of the method: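 Agonist L165041 (300 nM final) added with compound to PPARd-bla HEK293H UAS-bla reporter cells; 17 h incubation at 37 C. Read-out: LiveBLAzer FRET substrate, 2 h at room temperature, fluorescence intensity.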
# [3] = qHTS assay to identify small molecule antagonists of the retinoid-related orphan receptor gamma (ROR-gamma) signaling pathway - cell viability counter screen (AID 1159520); note: nearly all actives have a fitted effect of over 50% in size; note: potency is the fitted concentration of half-maximal effect
# Summary of the method: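 Tet-on ROR gamma CHO cells were given compounds for 2 hr, then doxycycline hyclate at 1 uM final, and incubated 16 hr at 37 C. Viability was measured as ATP content by CellTiter-Glo luminescence.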
# [4] = molecular target: Nuclear receptor ROR-gamma (Homo sapiens) (UniProt P51449); experiment: qHTS assay to identify small molecule antagonists of the retinoid-related orphan receptor gamma (ROR-gamma) signaling pathway (AID 1159521; note: nearly all actives have a fitted effect of over 50% in size; note: potency is the fitted concentration of half-maximal effect)
# Summary of the method: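 Tet-on RORγ CHO cells carrying a ROR response element–luciferase reporter were pretreated with compounds for 2 h, then induced with 1 uM (final) doxycycline hyclate for 16 h at 37 C. Antagonism was read as decreased ONE-Glo luminescence.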
# [5] = molecular target: Retinoic acid receptor RXR-alpha (Homo sapiens) (UniProt P19793); experiment: qHTS assay to identify small molecule agonists of the RXR signaling pathway (AID 1159527; calls by dose curve; note: potency is the fitted concentration of half-maximal effect; nearly all actives have a fitted effect of over 35% in size); conditions: HEK293T RXRa-UAS-bla, beta-lactamase ratio, 16 h; activation: at 76.8 µM (top of the series) unless noted
# Chain of UniProt P19793 (P19793 whole entry, looked up): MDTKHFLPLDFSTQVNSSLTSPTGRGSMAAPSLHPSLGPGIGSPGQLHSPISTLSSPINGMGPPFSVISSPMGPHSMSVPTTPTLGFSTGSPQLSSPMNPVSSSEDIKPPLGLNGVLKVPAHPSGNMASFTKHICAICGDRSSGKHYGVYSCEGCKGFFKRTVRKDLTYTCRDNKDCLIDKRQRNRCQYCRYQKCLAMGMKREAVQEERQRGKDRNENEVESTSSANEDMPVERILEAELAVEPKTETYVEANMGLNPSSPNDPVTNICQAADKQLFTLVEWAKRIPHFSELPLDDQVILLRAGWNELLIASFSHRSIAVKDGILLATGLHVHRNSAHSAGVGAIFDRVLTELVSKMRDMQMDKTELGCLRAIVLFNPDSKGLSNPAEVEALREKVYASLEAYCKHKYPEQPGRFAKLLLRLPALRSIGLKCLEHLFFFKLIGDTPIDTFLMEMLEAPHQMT
# Summary of the method: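 GeneBLAzer RXR-alpha-UAS-bla HEK 293T cells in medium with 2% charcoal-stripped FBS, pre-incubated 5 hr at 37 C, then exposed to compounds 16 hr. Beta-lactamase reporter read by FRET substrate, 2 hr room temperature, 460/530 nm emission.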
# [6] = qHTS assay to identify small molecule antagonists of the peroxisome proliferator-activated receptor delta (PPARd) signaling pathway - cell viability counter screen (AID 743213); conditions: PPARd-bla HEK293H viability, CellTiter-Glo luminescence, 17 h; viability change, negative = cytotoxic: at 62 µM (top of the series) unless noted; note: potency is the fitted concentration of half-maximal effect; nearly all actives have a fitted effect of over 50% in size
# Summary of the method: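 Agonist-stimulated (L165041, 300 nM final) HEK293H PPARd UAS-bla cells are exposed to compounds for 17 h at 37 C, and ATP-based luminescence (CellTiter-Glo) from the same wells reports cytotoxicity.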
# [7] = molecular target: Bile acid receptor (Homo sapiens) (UniProt Q96RI1); experiment: qHTS assay to identify small molecule antagonists of the farnesoid-X-receptor (FXR) signaling pathway (AID 743217; active = well fitted inhibition curve with a large enough effect in the signal ratio in the repeat runs, not every such curve was filed as active; inconclusive = weak or mixed curves, or effect the other way; inactive = no such curve, though single readings can be large or run the other way; the % refers to the signal ratio; note: potency is the fitted concentration of half-maximal effect); conditions: HEK293T FXR-UAS-bla, beta-lactamase ratio, CDCA-stimulated, 16 h; activity change, negative = inhibition: at 62.6 µM (top of the series) unless noted
# Chain of UniProt Q96RI1 (Q96RI1 whole entry, looked up): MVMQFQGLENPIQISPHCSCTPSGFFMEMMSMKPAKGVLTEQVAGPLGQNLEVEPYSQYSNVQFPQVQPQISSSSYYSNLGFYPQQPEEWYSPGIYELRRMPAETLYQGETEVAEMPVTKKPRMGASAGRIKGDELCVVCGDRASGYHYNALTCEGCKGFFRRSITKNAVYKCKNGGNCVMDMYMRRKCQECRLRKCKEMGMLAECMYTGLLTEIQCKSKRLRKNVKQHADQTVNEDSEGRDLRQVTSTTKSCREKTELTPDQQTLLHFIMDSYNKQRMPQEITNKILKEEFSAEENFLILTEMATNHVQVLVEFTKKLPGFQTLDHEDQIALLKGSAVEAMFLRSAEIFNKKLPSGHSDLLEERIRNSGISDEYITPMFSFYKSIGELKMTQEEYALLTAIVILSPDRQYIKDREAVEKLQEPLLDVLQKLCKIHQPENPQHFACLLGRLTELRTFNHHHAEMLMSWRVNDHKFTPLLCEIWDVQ
# Summary of the method: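 Antagonist mode: chenodeoxycholic acid at 50 uM final stimulates a UAS-driven beta-lactamase reporter in HEK 293T FXR-bla cells during 16 h, 37C compound exposure. Read-out is FRET substrate fluorescence after 2 h at room temperature.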
# [8] = qHTS assay to identify small molecule antagonists of the farnesoid-X-receptor (FXR) signaling pathway - cell viability counter screen (AID 743221; active = well fitted cell-killing curve with a large enough effect in the repeat runs, not every such curve was filed as active; inconclusive = weak or mixed curves, or effect the other way; inactive = no such curve, though single readings can be large or run the other way; note: potency is the fitted concentration of half-maximal effect; nearly all actives have a fitted effect of over 50% in size); conditions: FXR-bla HEK293T viability, CellTiter-Glo luminescence, 16 h; activity change, negative = cytotoxicity: at 62.6 µM (top of the series)
# Summary of the method: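 FXR-UAS-bla HEK 293T cells were treated with test compounds plus chenodeoxycholic acid (50 uM final) for 16 h at 37 C. Cell viability in the same wells was then read as CellTiter-Glo luminescence after 30 min at room temperature.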
# [9] = molecular target: Vitamin D3 receptor (Homo sapiens) (UniProt P11473); experiment: qHTS assay to identify small molecule agonists of the vitamin D receptor (VDR) signaling pathway (AID 743222; calls by dose curve; note: % is set by controls: 0 for no effect and ±100 for the full control effect); conditions: HEK293T VDR-UAS-bla, beta-lactamase FRET ratio, 16 h; activation: at 63.5 µM (top of the series) unless noted
# Chain of UniProt P11473 (P11473 whole entry, looked up): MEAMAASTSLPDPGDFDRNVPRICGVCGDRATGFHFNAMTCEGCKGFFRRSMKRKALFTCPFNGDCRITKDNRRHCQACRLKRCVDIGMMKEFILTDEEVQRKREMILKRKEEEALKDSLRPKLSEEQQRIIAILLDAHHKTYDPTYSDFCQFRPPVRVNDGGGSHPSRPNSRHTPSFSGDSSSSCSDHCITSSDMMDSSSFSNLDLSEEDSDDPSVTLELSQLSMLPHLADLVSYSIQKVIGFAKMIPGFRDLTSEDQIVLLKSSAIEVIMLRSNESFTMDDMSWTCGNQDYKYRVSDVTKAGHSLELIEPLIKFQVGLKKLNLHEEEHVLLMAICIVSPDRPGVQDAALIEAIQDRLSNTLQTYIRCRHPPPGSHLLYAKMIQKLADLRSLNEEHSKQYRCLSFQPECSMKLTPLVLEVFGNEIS
# Summary of the method: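 Agonist mode, beta-lactamase reporter: fluorescence from LiveBLAzer B/G FRET substrate (2 h, room temperature) read after 16 h compound treatment at 37 C of VDR-bla cells, which were pre-incubated 4 h after seeding.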
# [10] = qHTS assay to identify small molecule agonists of the AP-1 signaling pathway - cell viability counter screen (AID 1159525; calls by dose curve; note: nearly all actives have a fitted effect of over 55% in size; note: potency is the fitted concentration of half-maximal effect)
# Summary of the method: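 Same-well cytotoxicity counter screen of the Tox21 10K library in ME-180 cells. The readout is ATP-dependent luminescence after 5 h compound treatment. Data are normalised to DMSO and tetra n-octyl ammonium bromide controls.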
# [11] = qHTS assay to identify small molecule agonists of the AP-1 signaling pathway (AID 1159526; calls by dose curve; note: % is set by controls: 0 for no effect and ±100 for the full control effect); conditions: ME-180 (cervical carcinoma) AP-1-bla reporter, beta-lactamase FRET ratio, 5 h; activation: at 76.8 µM (top of the series) unless noted
# [12] = qHTS assay to identify small molecule agonists of the RXR signaling pathway - cell viability counter screen (AID 1159529)
# Summary of the method: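 RXR-alpha-UAS-bla HEK 293T cells in medium with 2% charcoal-stripped FBS were preincubated 5 hr, then exposed to compounds for 16 hr at 37 C. Viability was read as CellTiter-Glo luminescence after 30 min at room temperature.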
# [13] = qHTS assay to identify small molecule antagonists of the retinoid acid receptor (RAR) signaling pathway - cell viability counter screen (AID 1159551); note: potency is the fitted concentration of half-maximal effect; nearly all actives have a fitted effect of over 35% in size
# Summary of the method: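 Cytotoxicity counter screen: ATP content quantified by CellTiter-Glo luminescence in C3RL4 cells treated 6 hr at 37 C with compound and retinol (1 uM final). Cells plated at 1,000/well and cultured overnight before dosing.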
# [14] = qHTS assay to identify small molecule agonists of the farnesoid-X-receptor (FXR) signaling pathway - cell viability counter screen (AID 743218); conditions: FXR-bla HEK293T viability, CellTiter-Glo luminescence, 16 h; viability change, negative = cytotoxic: at 62.6 µM (top of the series) unless noted; note: potency is the fitted concentration of half-maximal effect; nearly all actives have a fitted effect of over 45% in size
# Summary of the method: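 Viability counter screen in the same wells: CellTiter-Glo luminescence, 30 min room-temperature incubation, measured after the beta-lactamase read. Cells were GeneBLAzer FXR-UAS-bla HEK 293T, compound-treated 16 h at 37C.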
# [15] = molecular target: Vitamin D3 receptor (Homo sapiens) (UniProt P11473); experiment: qHTS assay to identify small molecule antagonists of the vitamin D receptor (VDR) signaling pathway (AID 743223; active = well fitted inhibition curve with a large enough effect in the signal ratio in the repeat runs, not every such curve was filed as active; inconclusive = weak or mixed curves, or effect the other way; inactive = no such curve, though single readings can be large or run the other way; the % refers to the signal ratio; note: potency is the fitted concentration of half-maximal effect); conditions: VDR-UAS-bla HEK293T, beta-lactamase FRET ratio, 16 h; activity change, negative = inhibition: at 61 µM (top of the series) unless noted
# Summary of the method: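 VDR-bla cells were plated, incubated 4 h at 37C, then given compound and 1alpha,25-dihydroxyvitamin D3 (3 nM final). After 16 h at 37C, LiveBLAzer B/G FRET substrate was added for 2 h at room temperature and fluorescence read.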
# [16] = qHTS assay to identify small molecule antagonists of the vitamin D receptor (VDR) signaling pathway - cell viability counter screen (AID 743225); conditions: VDR-bla HEK293T viability, CellTiter-Glo luminescence, 16 h; viability change, negative = cytotoxic: at 61 µM (top of the series) unless noted
# Summary of the method: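 VDR-bla HEK 293T cells, 4 h pre-incubation at 37C, then compound plus 1-alpha,25-dihydroxyvitamin D3 (3 nM final) for 16 h. After the beta-lactamase FRET read, CellTiter-Glo was added to the same wells; luminescence after 30 min at room temperature.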
# Tags give direction and shape of the fitted curve or compound fluorescence and quenching.
Structure (SMILES),Potency [1],"ratio activity, negative = inhibition [2]",Potency [3],Potency [4],Potency [5],Potency [6],Potency [7],Potency [8],Potency [9],Potency [10],Potency [11],Potency [12],Potency [13],Potency [2],Potency [14],Potency [15],Potency [16]
CC(=O)OCCc1ccccc1,inactive,inconclusive: -6.93%,inactive,inactive,"inconclusive [activator, partial curve, poor fit]",–,–,–,–,–,–,–,–,–,–,–,–
COc1cc2ncnc(Nc3ccc(F)c(Cl)c3)c2cc1OCCCN1CCOCC1,–,–,"inconclusive [cytotoxic, partial curve, poor fit]",active: 11.9 µM,"inconclusive [rising, partial curve, poor fit]","inconclusive [cytotoxic, full curve]","inconclusive [inhibitor, partial curve]","inconclusive [falling, partial curve, poor fit]",inactive,"inconclusive [cytotoxic, single point]",inactive,"inconclusive [cytotoxic, full curve]","inconclusive [cytotoxic, partial curve, poor fit]",–,–,–,–
COc1c(C)c2c(c(O)c1C/C=C(\C)CCC(=O)OCCN1CCOCC1)C(=O)OC2,inactive,–,"inconclusive [cytotoxic, full curve]",active: 0.237 µM,"inconclusive [rising, full curve, poor fit]","inconclusive [cytotoxic, full curve]",active: 1.5 µM,"inconclusive [falling, full curve]",inactive,inactive,–,"inconclusive [cytotoxic, full curve]",–,"inconclusive [inhibitor, full curve]","inconclusive [cytotoxic, partial curve]","inconclusive [inhibitor, full curve]","inconclusive [cytotoxic, full curve]"
